Some of the results follow. The full chains were built here from the parent and the listed change. Inactive controls read about 0.05.
B1: TEV protease; numbered along this chain (parent)
chain: MGESLFKGPRDYNPISSSICHLTNESDGHTTSLYGIGFGPFIITNKHLFRRNNGTLVVQSLHGVFKVKDTTTLQQHLVDGRDMIIIRMPKDFPPFPQKLKFREPQREERICLVTTNFQTKSMSSMVSDTSCTFPSGDGIFWKHWIQTKDGQCGSPLVSTRDGFIVGIHSASNFTNTNNYFTSVPKNFMELLTNQEAQQWVSGWRLNADSVLWGGHKVFMVKPEEPFQPVKEATQL

Variants of: B1
Experiment: raw area under fraction-flipped curve 0-4 h after induction (AUC4h, not background-subtracted), DNA-recorder readout of cleavage of the substrate (dimensionless); higher = more cleavage of the substrate by the protease variant
Conditions: temperature: 34 °C; time window: 0-4 h after rhamnose induction
Procedure: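 In vivo DNA recorder in E. coli TOP10(DE3) ΔrhaA at 34 °C. Each TEVp single-site mutant (parent TEVp 0) is paired with a single-site variant of the 7-mer TEVs (canonical ENLYFQ|S). The substrate sits between flexible linkers in a Bxb1-sfGFP-TEVs-SsrA fusion, so cleavage stabilises Bxb1 and speeds flipping of a recombination array, read by NGS. The value is the raw area under the fraction-flipped curve over 0-4 h after rhamnose induction (AUC4h), with ≥20 reads per time point. It is not background-subtracted; inactive controls average about 0.047.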
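Further: Bxb1 expression induced with 0.2% (w/v) L-rhamnose at OD600 near 0.5, cultures sampled hourly, flipped fraction per protease–substrate barcode pair counted by paired-end Illumina sequencing.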

For G54L, which “area with substrate ENAYFQS” value is on record?
The value was 0.0365.

And the “area with substrate ENCYFQS” value?
The value was 0.0592.

What about the “area with substrate ENDYFQS” value of the same variant?
Its value is 0.0452.

And the “area with substrate ENEYFQS” value?
The value was 0.0558.

What about the “area with substrate ENGYFQS” value of the same variant?
Its value is 0.0554.

What about the “area with substrate ENHYFQS” value of the same variant?
The value was 0.058.

And the “area with substrate ENIYFQS” value?
The value was 0.0698.

And the “area with substrate ENKYFQS” value?
Its value is 0.0481.

And the “area with substrate ENNYFQS” value?
The value was 0.0451.

What about the “area with substrate ENPYFQS” value of the same variant?
Its value is 0.0572.

And the “area with substrate ENQYFQS” value?
The value was 0.0544.

What about the “area with substrate ENRYFQS” value of the same variant?
Its value is 0.0548.

And the “area with substrate ENTYFQS” value?
Its value is 0.0489.

And the “area with substrate ENVYFQS” value?
The value was 0.0526.

What does the source list for G54H?
area with substrate ENAYFQS: 0.0612; area with substrate ENDYFQS: 0.0623; area with substrate ENEYFQS: 0.0547; area with substrate ENFYFQS: 0.0665; area with substrate ENGYFQS: 0.0573; area with substrate ENHYFQS: 0.0639; area with substrate ENIYFQS: 0.0888; area with substrate ENMYFQS: 0.0567; area with substrate ENNYFQS: 0.0628; area with substrate ENQYFQS: 0.0553; area with substrate ENRYFQS: 0.0522; area with substrate ENSYFQS: 0.0592; area with substrate ENTYFQS: 0.0558; area with substrate ENVYFQS: 0.0568; area with substrate ENYYFQS: 0.063

Which results are given for G54R?
area with substrate ENAYFQS: 0.0672; area with substrate ENCYFQS: 0.065; area with substrate ENDYFQS: 0.0623; area with substrate ENEYFQS: 0.0592; area with substrate ENFYFQS: 0.0491; area with substrate ENGYFQS: 0.0586; area with substrate ENHYFQS: 0.0478; area with substrate ENIYFQS: 0.0621; area with substrate ENKYFQS: 0.0626; area with substrate ENMYFQS: 0.0455; area with substrate ENNYFQS: 0.049; area with substrate ENPYFQS: 0.0645; area with substrate ENQYFQS: 0.0646; area with substrate ENRYFQS: 0.0587; area with substrate ENSYFQS: 0.0583; area with substrate ENTYFQS: 0.0528; area with substrate ENVYFQS: 0.0677; area with substrate ENWYFQS: 0.0407; area with substrate ENYYFQS: 0.0361

For R51A, which “area with substrate ENAYFQS” value is on record?
Its value is 0.0605.

What about the “area with substrate ENCYFQS” value of the same variant?
The value was 0.0793.

And the “area with substrate ENDYFQS” value?
The value was 0.0659.

What about the “area with substrate ENEYFQS” value of the same variant?
The value was 0.0549.

What about the “area with substrate ENMYFQS” value of the same variant?
Its value is 0.0755.

And the “area with substrate ENNYFQS” value?
The value was 0.0646.

What about the “area with substrate ENQYFQS” value of the same variant?
The value was 0.069.

And the “area with substrate ENVYFQS” value?
The value was 0.0764.

And the “area with substrate ENWYFQS” value?
The value was 0.0687.

What about the “area with substrate ENYYFQS” value of the same variant?
The value was 0.0688.

With V57L as the variant, how does the “area with substrate ENAYFQS” value read?
The value was 0.06.

What about the “area with substrate ENCYFQS” value of the same variant?
Its value is 0.0738.

What about the “area with substrate ENDYFQS” value of the same variant?
The value was 0.0618.

And the “area with substrate ENEYFQS” value?
The value was 0.064.

What about the “area with substrate ENGYFQS” value of the same variant?
Its value is 0.0795.

And the “area with substrate ENHYFQS” value?
The value was 0.0758.

What about the “area with substrate ENMYFQS” value of the same variant?
The value was 0.0916.

And the “area with substrate ENNYFQS” value?
Its value is 0.0629.

What about the “area with substrate ENPYFQS” value of the same variant?
Its value is 0.0301.

What about the “area with substrate ENQYFQS” value of the same variant?
Its value is 0.0602.

And the “area with substrate ENRYFQS” value?
The value was 0.0612.

And the “area with substrate ENSYFQS” value?
The value was 0.0618.

What about the “area with substrate ENVYFQS” value of the same variant?
The value was 0.0643.

For V57G, which “area with substrate ENAYFQS” value is on record?
Its value is 0.0621.

And the “area with substrate ENCYFQS” value?
Its value is 0.0703.

And the “area with substrate ENDYFQS” value?
Its value is 0.0873.

And the “area with substrate ENFYFQS” value?
Its value is 0.0562.

What about the “area with substrate ENGYFQS” value of the same variant?
The value was 0.0592.

What about the “area with substrate ENHYFQS” value of the same variant?
The value was 0.0488.

And the “area with substrate ENIYFQS” value?
The value was 0.103.

And the “area with substrate ENMYFQS” value?
Its value is 0.0863.

What about the “area with substrate ENNYFQS” value of the same variant?
Its value is 0.0394.

What about the “area with substrate ENQYFQS” value of the same variant?
The value was 0.0583.

What about the “area with substrate ENSYFQS” value of the same variant?
The value was 0.06.

What about the “area with substrate ENTYFQS” value of the same variant?
Its value is 0.0653.

What about the “area with substrate ENVYFQS” value of the same variant?
Its value is 0.0801.

What about the “area with substrate ENWYFQS” value of the same variant?
The value was 0.0362.

What does the source list for V57W?
area with substrate ENAYFQS: 0.0727; area with substrate ENCYFQS: 0.0906; area with substrate ENDYFQS: 0.0525; area with substrate ENEYFQS: 0.0491; area with substrate ENFYFQS: 0.0576; area with substrate ENGYFQS: 0.0667; area with substrate ENHYFQS: 0.0418; area with substrate ENNYFQS: 0.0619; area with substrate ENPYFQS: 0.0628; area with substrate ENQYFQS: 0.0658; area with substrate ENRYFQS: 0.0536; area with substrate ENSYFQS: 0.0525; area with substrate ENYYFQS: 0.069

Which “area with substrate ENAYFQS” value does the source give for F49R here?
Its value is 0.0583.

What about the “area with substrate ENCYFQS” value of the same variant?
The value was 0.0598.

What about the “area with substrate ENDYFQS” value of the same variant?
The value was 0.0761.

And the “area with substrate ENEYFQS” value?
Its value is 0.0596.

What about the “area with substrate ENFYFQS” value of the same variant?
Its value is 0.0633.

What about the “area with substrate ENGYFQS” value of the same variant?
Its value is 0.0506.

And the “area with substrate ENHYFQS” value?
Its value is 0.0822.

What about the “area with substrate ENMYFQS” value of the same variant?
Its value is 0.034.

And the “area with substrate ENNYFQS” value?
Its value is 0.0454.

What about the “area with substrate ENPYFQS” value of the same variant?
Its value is 0.0516.

And the “area with substrate ENQYFQS” value?
Its value is 0.051.

What about the “area with substrate ENSYFQS” value of the same variant?
Its value is 0.0474.

What about the “area with substrate ENVYFQS” value of the same variant?
The value was 0.0678.

What about the “area with substrate ENWYFQS” value of the same variant?
Its value is 0.0196.

With F49K as the variant, how does the “area with substrate ENAYFQS” value read?
The value was 0.0599.

And the “area with substrate ENCYFQS” value?
Its value is 0.0613.

And the “area with substrate ENDYFQS” value?
Its value is 0.0621.

What about the “area with substrate ENEYFQS” value of the same variant?
The value was 0.0657.

What about the “area with substrate ENFYFQS” value of the same variant?
The value was 0.0496.

What about the “area with substrate ENGYFQS” value of the same variant?
The value was 0.0414.

And the “area with substrate ENHYFQS” value?
The value was 0.06.

What about the “area with substrate ENIYFQS” value of the same variant?
Its value is 0.0525.

What about the “area with substrate ENKYFQS” value of the same variant?
Its value is 0.063.

And the “area with substrate ENMYFQS” value?
Its value is 0.0547.

And the “area with substrate ENNYFQS” value?
The value was 0.0457.

And the “area with substrate ENPYFQS” value?
Its value is 0.0376.

What about the “area with substrate ENQYFQS” value of the same variant?
Its value is 0.0554.

What about the “area with substrate ENRYFQS” value of the same variant?
Its value is 0.0503.

And the “area with substrate ENSYFQS” value?
The value was 0.0609.

And the “area with substrate ENTYFQS” value?
The value was 0.0621.

What about the “area with substrate ENYYFQS” value of the same variant?
Its value is 0.0697.

What does the source list for F49G?
area with substrate ENAYFQS: 0.0679; area with substrate ENCYFQS: 0.0523; area with substrate ENEYFQS: 0.0564; area with substrate ENFYFQS: 0.0584; area with substrate ENGYFQS: 0.0594; area with substrate ENHYFQS: 0.0633; area with substrate ENIYFQS: 0.0571; area with substrate ENKYFQS: 0.0683; area with substrate ENMYFQS: 0.06; area with substrate ENNYFQS: 0.0675; area with substrate ENPYFQS: 0.0545; area with substrate ENQYFQS: 0.0549; area with substrate ENSYFQS: 0.0601; area with substrate ENTYFQS: 0.0532; area with substrate ENVYFQS: 0.0504; area with substrate ENWYFQS: 0.0447; area with substrate ENYYFQS: 0.0264

Which “area with substrate ENAYFQS” value does the source give for F49P here?
Its value is 0.0504.

And the “area with substrate ENCYFQS” value?
The value was 0.0476.

And the “area with substrate ENDYFQS” value?
Its value is 0.0615.

What about the “area with substrate ENEYFQS” value of the same variant?
Its value is 0.0546.

And the “area with substrate ENFYFQS” value?
The value was 0.0511.

What about the “area with substrate ENIYFQS” value of the same variant?
The value was 0.058.

And the “area with substrate ENMYFQS” value?
Its value is 0.0399.

And the “area with substrate ENNYFQS” value?
Its value is 0.0542.

And the “area with substrate ENPYFQS” value?
The value was 0.05.

And the “area with substrate ENQYFQS” value?
Its value is 0.0532.

And the “area with substrate ENRYFQS” value?
Its value is 0.0502.

What about the “area with substrate ENSYFQS” value of the same variant?
The value was 0.0605.

What about the “area with substrate ENTYFQS” value of the same variant?
The value was 0.0498.

And the “area with substrate ENVYFQS” value?
Its value is 0.0529.

And the “area with substrate ENWYFQS” value?
The value was 0.0541.

And the “area with substrate ENYYFQS” value?
Its value is 0.0652.

For H47N, which “area with substrate ENAYFQS” value is on record?
The value was 0.0626.

And the “area with substrate ENCYFQS” value?
The value was 0.0643.

And the “area with substrate ENDYFQS” value?
The value was 0.0609.

And the “area with substrate ENEYFQS” value?
The value was 0.0696.

What about the “area with substrate ENHYFQS” value of the same variant?
Its value is 0.0569.

What about the “area with substrate ENIYFQS” value of the same variant?
The value was 0.069.

And the “area with substrate ENKYFQS” value?
Its value is 0.0576.

What about the “area with substrate ENNYFQS” value of the same variant?
The value was 0.0522.

What about the “area with substrate ENPYFQS” value of the same variant?
Its value is 0.0724.

And the “area with substrate ENQYFQS” value?
Its value is 0.0823.

And the “area with substrate ENRYFQS” value?
Its value is 0.0634.

And the “area with substrate ENSYFQS” value?
Its value is 0.052.

And the “area with substrate ENVYFQS” value?
Its value is 0.0604.

From the supplement of paper PMC12217912
